# Test results reported in the supplement of paper PMC8728848.
# The other results are listed elsewhere or left out.
# Tests used:
# Assay in all cases: glycan array binding signal (z-score within array); higher = stronger binding
# Conditions in all cases: glycan notation: IUPAC condensed, linker removed; mutation: R85A
# [1] = molecular target: GlcNAc6S(b1-3)Gal(b1-4)GlcNAc
# Method in brief: (§1)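 Glycan array binding is given as a within-array Z-score, which can be read as non-binding when negative. The arrays, 3228 of them, came from the Consortium for Functional Glycomics database and were retained only where the protein sequence was available. Z-scores were averaged across arrays of the same protein sequence at different concentrations or buffers and across linkers.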
# Kdn(a2-3)Gal(b1-3)GalNAc = molecular target: Kdn(a2-3)Gal(b1-3)GalNAc
# Method in brief: as §1
# Kdn(a2-3)Gal(b1-3)GlcNAc = molecular target: Kdn(a2-3)Gal(b1-3)GlcNAc
# Method in brief: as §1
# Kdn(a2-3)Gal(b1-4)Glc = molecular target: Kdn(a2-3)Gal(b1-4)Glc
# Method in brief: as §1
# Kdn(a2-3)Gal(b1-4)GlcNAc = molecular target: Kdn(a2-3)Gal(b1-4)GlcNAc
# Method in brief: as §1
# [2] = molecular target: Kdn(a2-3)Gal(b1-4)[Fuc(a1-3)]GlcNAc
# Method in brief: as §1
# Kdn(a2-6)Gal(b1-4)GlcNAc = molecular target: Kdn(a2-6)Gal(b1-4)GlcNAc
# Method in brief: as §1
# [3] = molecular target: Man(a1-2)Man(a1-2)Man(a1-3)Man
# Method in brief: as §1
# [4] = molecular target: Man(a1-2)Man(a1-2)Man(a1-6)[Man(a1-3)]Man
# Method in brief: as §1
# Man(a1-2)Man(a1-3)Man = molecular target: Man(a1-2)Man(a1-3)Man
# Method in brief: as §1
# [5] = molecular target: Man(a1-2)Man(a1-3)[Man(a1-2)Man(a1-6)]Man
# Method in brief: as §1
# [6] = molecular target: Man(a1-2)Man(a1-3)[Man(a1-2)Man(a1-6)]Man(a1-6)[Man(a1-2)Man(a1-2)Man(a1-3)]Man
# Method in brief: as §1
# [7] = molecular target: Man(a1-2)Man(a1-3)[Man(a1-2)Man(a1-6)]Man(a1-6)[Man(a1-2)Man(a1-2)Man(a1-3)]Man(b1-4)GlcNAc(b1-4)GlcNAc
# Method in brief: as §1
# [8] = molecular target: Man(a1-2)Man(a1-3)[Man(a1-6)]Man(a1-6)[Man(a1-2)Man(a1-3)]Man(b1-4)GlcNAc(b1-4)GlcNAc
# Method in brief: as §1
# [9] = molecular target: Man(a1-2)Man(a1-6)[Man(a1-3)]Man(a1-6)[Man(a1-2)Man(a1-2)Man(a1-3)]Man
# Method in brief: as §1
# [10] = molecular target: Man(a1-2)Man(a1-6)[Man(a1-3)]Man(a1-6)[Man(a1-2)Man(a1-2)Man(a1-3)]Man(b1-4)GlcNAc(b1-4)GlcNAc
# Method in brief: as §1
# Man(a1-3)[Man(a1-6)]Man = molecular target: Man(a1-3)[Man(a1-6)]Man
# Method in brief: as §1
# [11] = molecular target: Man(a1-3)[Man(a1-6)]Man(a1-6)[Man(a1-2)Man(a1-3)]Man(b1-4)GlcNAc(b1-4)GlcNAc
# Method in brief: as §1
# [12] = molecular target: Man(a1-3)[Man(a1-6)]Man(a1-6)[Man(a1-3)]Man
# Method in brief: as §1
# [13] = molecular target: Man(a1-3)[Man(a1-6)]Man(a1-6)[Man(a1-3)]Man(b1-4)GlcNAc(b1-4)GlcNAc
# Method in brief: as §1
# [14] = molecular target: Man(a1-3)[Man(a1-6)]Man(b1-4)GlcNAc(b1-4)GlcNAc
# Method in brief: as §1
# Man(a1-6)Man = molecular target: Man(a1-6)Man
# Method in brief: as §1
# Man(b1-4)GlcNAc = molecular target: Man(b1-4)GlcNAc
# Method in brief: as §1
# Neu5Ac(a2-3)Gal = molecular target: Neu5Ac(a2-3)Gal
# Method in brief: as §1
# [15] = molecular target: Neu5Ac(a2-3)Gal(b1-3)GalNAc
# Method in brief: as §1
# [16] = molecular target: Neu5Ac(a2-3)Gal(b1-3)GalNAc(b1-3)Gal(a1-4)Gal(b1-4)Glc
# Method in brief: as §1
# [17] = molecular target: Neu5Ac(a2-3)Gal(b1-3)GalNAc(b1-4)[Neu5Ac(a2-3)]Gal(b1-4)Glc
# Method in brief: as §1
# [18] = molecular target: Neu5Ac(a2-3)Gal(b1-3)GalNAc6S
# Method in brief: as §1
# [19] = molecular target: Neu5Ac(a2-3)Gal(b1-3)GlcNAc
# Method in brief: as §1
# [20] = molecular target: Neu5Ac(a2-3)Gal(b1-3)GlcNAc(b1-2)Man(a1-3)[Neu5Ac(a2-3)Gal(b1-3)GlcNAc(b1-2)Man(a1-6)]Man(b1-4)GlcNAc(b1-4)GlcNAc
# Method in brief: as §1
# [21] = molecular target: Neu5Ac(a2-3)Gal(b1-3)GlcNAc(b1-3)Gal(b1-3)GlcNAc
# Method in brief: as §1
# [22] = molecular target: Neu5Ac(a2-3)Gal(b1-3)GlcNAc(b1-3)Gal(b1-4)GlcNAc
# Method in brief: as §1
# [23] = molecular target: Neu5Ac(a2-3)Gal(b1-3)GlcNAc(b1-3)GalNAc
# Method in brief: as §1
# [24] = molecular target: Neu5Ac(a2-3)Gal(b1-3)GlcNAc6S
# Method in brief: as §1
# [25] = molecular target: Neu5Ac(a2-3)Gal(b1-3)[Fuc(a1-4)]GlcNAc
# Method in brief: as §1
# [26] = molecular target: Neu5Ac(a2-3)Gal(b1-3)[Fuc(a1-4)]GlcNAc(b1-3)Gal(b1-3)[Fuc(a1-4)]GlcNAc
# Method in brief: as §1
# [27] = molecular target: Neu5Ac(a2-3)Gal(b1-3)[Fuc(a1-4)]GlcNAc(b1-3)Gal(b1-4)[Fuc(a1-3)]GlcNAc
# Method in brief: as §1
# [28] = molecular target: Neu5Ac(a2-3)Gal(b1-3)[Neu5Ac(a2-3)Gal(b1-4)]GlcNAc
# Method in brief: as §1
# [29] = molecular target: Neu5Ac(a2-3)Gal(b1-3)[Neu5Ac(a2-6)]GalNAc
# Method in brief: as §1
# Neu5Ac(a2-3)Gal(b1-4)Glc = molecular target: Neu5Ac(a2-3)Gal(b1-4)Glc
# Method in brief: as §1
# [30] = molecular target: Neu5Ac(a2-3)Gal(b1-4)GlcNAc
# Method in brief: as §1
# [31] = molecular target: Neu5Ac(a2-3)Gal(b1-4)GlcNAc(b1-2)Man(a1-3)[GlcNAc(b1-2)Man(b1-4)GlcNAc(b1-2)Man(a1-6)]Man(b1-4)GlcNAc(b1-4)GlcNAc
# Method in brief: as §1
# [32] = molecular target: Neu5Ac(a2-3)Gal(b1-4)GlcNAc(b1-2)Man(a1-3)[Neu5Ac(a2-6)Gal(b1-4)GlcNAc(b1-2)Man(a1-6)]Man(b1-4)GlcNAc(b1-4)GlcNAc
# Method in brief: as §1
# [33] = molecular target: Neu5Ac(a2-3)Gal(b1-4)GlcNAc(b1-3)Gal(b1-3)GlcNAc
# Method in brief: as §1
# [34] = molecular target: Neu5Ac(a2-3)Gal(b1-4)GlcNAc(b1-3)Gal(b1-4)GlcNAc
# Method in brief: as §1
binder,measurement,setting,value
"rAAL (Agrocybe aegerita), Q6WY08 (protein) MQGVNIYNISAGTSVDLAAPVTTGDIVTFFSSALNLNAGAGNPNNTTLNLFAENGAYLLHIAFRLQENVIIFNSRQPDGPWLVEQAVSDVANQFAGIDGKAMVTVFDHGDKYQVVINEKTVIQYTKQISGLTLSLSYNATEETSIFSTVVEAVTYTGLALEHHHHHH",glycan array binding signal (z-score),[1],-0.13
same,glycan array binding signal (z-score),Kdn(a2-3)Gal(b1-3)GalNAc,-0.095
same,glycan array binding signal (z-score),Kdn(a2-3)Gal(b1-3)GlcNAc,-0.046
same,glycan array binding signal (z-score),Kdn(a2-3)Gal(b1-4)Glc,-0.103
same,glycan array binding signal (z-score),Kdn(a2-3)Gal(b1-4)GlcNAc,-0.143
same,glycan array binding signal (z-score),[2],-0.131
same,glycan array binding signal (z-score),Kdn(a2-6)Gal(b1-4)GlcNAc,-0.116
same,glycan array binding signal (z-score),[3],-0.12
same,glycan array binding signal (z-score),[4],-0.129
same,glycan array binding signal (z-score),Man(a1-2)Man(a1-3)Man,-0.134
same,glycan array binding signal (z-score),[5],-0.128
same,glycan array binding signal (z-score),[6],-0.137
same,glycan array binding signal (z-score),[7],-0.124
same,glycan array binding signal (z-score),[8],-0.136
same,glycan array binding signal (z-score),[9],-0.135
same,glycan array binding signal (z-score),[10],-0.139
same,glycan array binding signal (z-score),Man(a1-3)[Man(a1-6)]Man,-0.125
same,glycan array binding signal (z-score),[11],-0.133
same,glycan array binding signal (z-score),[12],-0.134
same,glycan array binding signal (z-score),[13],-0.139
same,glycan array binding signal (z-score),[14],-0.129
same,glycan array binding signal (z-score),Man(a1-6)Man,-0.137
same,glycan array binding signal (z-score),Man(b1-4)GlcNAc,-0.112
same,glycan array binding signal (z-score),Neu5Ac(a2-3)Gal,-0.143
same,glycan array binding signal (z-score),[15],0.645
same,glycan array binding signal (z-score),[16],0.132
same,glycan array binding signal (z-score),[17],0.345
same,glycan array binding signal (z-score),[18],-0.018
same,glycan array binding signal (z-score),[19],-0.078
same,glycan array binding signal (z-score),[20],-0.144
same,glycan array binding signal (z-score),[21],-0.05
same,glycan array binding signal (z-score),[22],-0.024
same,glycan array binding signal (z-score),[23],-0.112
same,glycan array binding signal (z-score),[24],-0.135
same,glycan array binding signal (z-score),[25],-0.142
same,glycan array binding signal (z-score),[26],-0.054
same,glycan array binding signal (z-score),[27],-0.135
same,glycan array binding signal (z-score),[28],-0.132
same,glycan array binding signal (z-score),[29],-0.112
same,glycan array binding signal (z-score),Neu5Ac(a2-3)Gal(b1-4)Glc,0.216
same,glycan array binding signal (z-score),[30],-0.128
same,glycan array binding signal (z-score),[31],-0.067
same,glycan array binding signal (z-score),[32],-0.113
same,glycan array binding signal (z-score),[33],-0.126
same,glycan array binding signal (z-score),[34],-0.113
